Results on 73 sequences are retold here after article PMC10726135.

The other results are listed elsewhere or left out. At the low end of the ranking the order means little. Measured with an extract: partners may take part in the binding.

The target in this assay is T1, HNF4alpha8 (COS-7 nuclear extract) (UniProt P41235-5).
T1 sequence: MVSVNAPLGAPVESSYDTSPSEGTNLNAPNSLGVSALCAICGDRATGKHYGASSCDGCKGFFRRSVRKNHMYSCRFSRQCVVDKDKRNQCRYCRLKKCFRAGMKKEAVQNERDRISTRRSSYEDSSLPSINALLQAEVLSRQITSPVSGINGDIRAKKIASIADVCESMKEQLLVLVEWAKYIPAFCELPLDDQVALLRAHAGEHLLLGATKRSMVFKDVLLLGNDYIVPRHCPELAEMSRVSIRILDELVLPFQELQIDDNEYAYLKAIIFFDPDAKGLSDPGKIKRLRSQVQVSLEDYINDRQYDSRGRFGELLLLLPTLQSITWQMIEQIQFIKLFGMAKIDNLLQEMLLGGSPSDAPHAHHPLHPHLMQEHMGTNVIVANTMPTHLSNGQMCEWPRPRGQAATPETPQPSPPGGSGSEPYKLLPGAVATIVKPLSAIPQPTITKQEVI
The assay is described as follows: protein-binding microarray. Particulars: COS-7 nuclear extract on double-stranded Agilent 4x180k PBM; binding buffer, salt, pH and temperature not given; high values mean tight binding; double strand, one strand shown; sequences stand for … in …GCCTAGGGAGATTAGAGTATCGGTCGA
Regarding GTACTTTCTTTTGGCTCTCTCTCTTGGTTC, the binding signal (log2 normalized intensity) was determined as 1.52. Under AAAAGCAAACCGAGATCAAGGGACAGAGAT stands -1.31; under TAACGGTGAGGGAGGAGACTTTGACCTCTG, 7.45; under CTGGATGACCTTTGTCCTGGCACAACTGGA, 6.78.

Turning to ATTAGCTGAACATGGTGACACACACCTCCA, the binding signal (log2 normalized intensity) is -1.37. On to TAAGGTTGTACTTTGGAGTTTACTTTAGAT, for which the binding signal (log2 normalized intensity) stood at 3.58. In the case of CAAATAACATTCCTAACATTCTTCCTCACA it was -0.982; in that of TTCCCTATCTAGCCACTTTCTTTGTCTGTG, 0.864. Regarding TGTGTGTGTGTGTGTATGCCATGCTAATTG, the binding signal (log2 normalized intensity) was 2.09. Under TAGCATGCTCTCTTGTCAAGACCGATTGTG stands 0.128; under AAAATGGGTACAGACAATAGGAAGAGTGAG, -1.38; under GGTACCATCTGCCACTCATAGAACTGTCGC, -1.34.

Consider TTTTGATGGTGGAGGGTCTTGCTTTGATGT, for which the binding signal (log2 normalized intensity) came to 1.05. On to CTCTTGAATTGGAAGGCAAAGTTCAACCCT, for which the binding signal (log2 normalized intensity) was 4.17. Under AACCCAGTGCAATGCCTAAACCAGGATCCA stands -1.42; under TTAGTTTCCTTATCTGTAAAATGGACATAG, 1.38.

On to AAGGTTTCCATCAAGCCTTTGACTCGAATG, for which the binding signal (log2 normalized intensity) is -1.31. Under AAAAGATAAGGCGTAGTTCAGAGAAAACGA stands -1.34; under ACTTCTCCTCTTATCTTCAGGTTTGCTAAT, 1.72. Under GGGTTGGAGTCCAGAGTTCAGGTAGAGGGA stands 2.42; under ACACAGTACTTTGTACATGGGAATAGACAT, 0.975; under CGAGCGTCCAAGCTCTTTCCATTTTTGCTC, -1.06. As to GGGTCAGTTTATCTAAGATTCCCCCTACCC, the binding signal (log2 normalized intensity) is 4. In the case of TGGACTCTGGGATCTCAGGGTGGACTTTAA it was 6.54. In the case of CAAAATAGACAAACAGCAATAGCAAGACTG it was -1.3.

As for ATGGAGGTAGGAGTATTTGGGTATGTGCCT, the binding signal (log2 normalized intensity) is 0.813.

For the sequence TTTCAAAGCTCCAGTTCCAGGGATGTCTTT, the binding signal (log2 normalized intensity) was 0.174.

Consider GTAAAATGAGCAAACAGAACTGTTAACTTT, for which the binding signal (log2 normalized intensity) was -0.875. In the case of CTCTAATCTGGGACAAGGGGGAGGAGAGTA it was -1.28; in that of AATTACCCAACAGACTTTCCCCCTATTTCC, 3.37. In the case of GCAGTGGTTTGCAGTTGGAAAGCTGAGTTT it was 0.629; in that of TCCTCTTCCCTACCCCCTGGGAGTAACCTG, 3.13; in that of GCTTTTCTTTCTCAAGCCAGACTGGTTTTT, 0.38. For the sequence AGCCACTTTCTTTGTCTGTGTAGACTCATC, the binding signal (log2 normalized intensity) was 1.15. In the case of ACAGAGCCTGGTGTTTACTGGAGCCGAGTC it was -0.000378. Under TGAGCCATCCTGAACAAATGTACTGGATAT stands -0.391; under GCACTTTGCACCCTATGTGTTTCTTCTGCT, 4.43; under GTGTGGGGCAAATCTGAGGTCAAAGCTGTC, 1.95.

As to GGGAGCCCTGGGGTAATAAATAAAGCCCTG, the binding signal (log2 normalized intensity) was -1.43. Under GACTTTTCCAAGCTCTAGAACGCTGACTCC stands -1.26; under GCACAGATCATATGGCCCACAAAGCCTAAA, -1.35; under GCCTGTCACCCAACCTCACCTAACCACATT, 1.21. In the case of TAAGGAAGATAATGGGTCCGAAGGTCAGCT it was 7.16; in that of ACTTTGACCTTGGCACTGAAGAATGTCTAA, 2.09.

For AAACCAAATCACAATTTTCAAGAACAAACA, the binding signal (log2 normalized intensity) is -1.44. Turning to CAAAGGGTCAAGTTCAGATCCTGGCCATGC, the binding signal (log2 normalized intensity) is 1.36.

For CCTGGGAGTAACCTGCTTGTTTTCCCAACA, the binding signal (log2 normalized intensity) is -1.16. Under CTGGGGCAAAGGTTTCCTAAACAGTTACCG stands 1.59; under TGACCTTGGGCCAGTCGCTTAACCTCTTGA, 2.33; under GTTAAACAGCAACTCAGGCAACAATGCCTT, -1.44. In the case of AATTTTTTTTTCTTATCTCACTGGATGTGT it was 1.85. In the case of ATGGCTTATGCATGTTTATGTGAATTCCTG it was 1.12; in that of GCCGACTTACAGGACAAAAGTAAATATGGT, -0.745; in that of ATTTTGTCACCTACATGTGAGAGAGGCTTA, -1.38. In the case of CCCAGTATGGTCTCAGTAATGACATGCAGT, the binding signal (log2 normalized intensity) is 0.868. In the case of TTTCACTGCCTATCTCCTATGAGCCAAACA it was -1.44. Take TTAGCCAGGATCAGATTTGATAGCTGGGCT: the binding signal (log2 normalized intensity) was -1.26. With CGCTCCGCGAGGTGAGCCATTGGCTGGGGT, the binding signal (log2 normalized intensity) came to 0.233. In the case of TATAGTGCTCCCTCCTGTGGTAATAAGTTG it was 1.43; in that of ATAGACATGACTTACTTGGCATCATCAAAC, -0.766.

With AGCTAATCTGACCAAGTGAACTGTGACCTG, the binding signal (log2 normalized intensity) is 5.12.

As for ATTGGCAGGCATTCCACACTGCAGGCTCTG, the binding signal (log2 normalized intensity) was -1.29.

Turning to GGCATTGGAGATATGATAGCTGACAAGCAA, the binding signal (log2 normalized intensity) was -1.37. For AAAATTCCCCAGGAGGAGATAAGATCAGTA, the binding signal (log2 normalized intensity) is -0.434. Consider GGATCAGAGACACGATGTTCTTGCCAAGTC, for which the binding signal (log2 normalized intensity) was -0.451. For the sequence ATCTTACAGGCTTATACGTGGAAGAAACTC, the binding signal (log2 normalized intensity) is 0.569. In the case of CCCTCCCTCTTCCCTCATATAATTTACATA it was 1.83. Under GAAAGTAAGTGCACAGCCAGAACTGAGCCC stands -1.28; under CATCAAATCCTCGGAAGACGCACCTCTGCA, -1.35; under TTCTTGGGCAAGAAAGGGGTCAGCAAAAAT, 1.8. In the case of GTCAGCCCTGCCATCTTGTGGCCATGCTTA it was -1.18; in that of AGAAGTGAAAAGTCGTTTTCAGTGTTTCTT, 0.838; in that of GACAAATCTGTGTTGGAGTTCTAAGAGCCT, -1.16.
